# Source: the supplement of paper PMC3334620
# In all, about 33,000 sequences were measured (“E-score (-0.5 to 0.5)”: median about -0.035, highest 2% from about 0.34 on). The list shows a part of the results.
# Target: T1, Mot3 (UniProt P54785)
# T1 sequence: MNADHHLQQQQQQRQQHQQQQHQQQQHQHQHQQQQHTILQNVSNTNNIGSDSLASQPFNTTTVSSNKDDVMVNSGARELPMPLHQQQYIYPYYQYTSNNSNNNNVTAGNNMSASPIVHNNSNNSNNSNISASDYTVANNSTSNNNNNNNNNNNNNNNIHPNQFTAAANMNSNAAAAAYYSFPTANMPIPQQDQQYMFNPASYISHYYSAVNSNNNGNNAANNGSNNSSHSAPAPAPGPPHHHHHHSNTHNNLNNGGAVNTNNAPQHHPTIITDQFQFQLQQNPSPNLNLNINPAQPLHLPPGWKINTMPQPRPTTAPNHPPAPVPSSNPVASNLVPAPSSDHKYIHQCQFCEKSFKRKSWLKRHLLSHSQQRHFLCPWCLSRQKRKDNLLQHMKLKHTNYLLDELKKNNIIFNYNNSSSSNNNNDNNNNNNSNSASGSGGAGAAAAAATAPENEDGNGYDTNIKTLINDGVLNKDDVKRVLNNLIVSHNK
# Experiment: PBM E-score (8-mer binding enrichment) (E-score (-0.5 to 0.5)); higher = stronger / more preferred TF binding; most listed sequences are background and not binding sites
# Conditions: protein concentration: 200 nM; construct: GST-full length
# Summary of the method: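 Full-length yeast transcription factors or their DNA-binding domains, GST-tagged and expressed with PURExpress, were applied at about 100-200 nM to universal all-10-mer Agilent arrays. These arrays had been made double-stranded by primer extension on fresh or once-stripped slides. Detection used fluorescent anti-GST, normalisation used masliner, and E-scores for ungapped eight-base words pooled with reverse complements came from the Universal PBM Analysis Suite.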
row,Sequence,PBM E-score
1,CTCCGCCC,-0.244
2,GCAGAGTA,0.0243
3,AATAGCGG,-0.117
4,GAGTATTA,0.204
5,AGCGTAGC,-0.14
6,GAGATTGC,-0.0847
7,AGGAGGTC,-0.27
8,CAGCCCAG,-0.22
9,AACGCTCT,-0.167
10,CCCCGTTA,-0.156
11,AACTACGG,-0.146
12,CGATCTTC,-0.305
13,GTACTGAC,-0.15
14,ACATACCT,0.288
15,GCGATTCC,0.0141
16,AAATTTGA,0.0379
17,CTTACAAG,0.218
18,CTAGTCAG,-0.16
19,GCCGCGGA,-0.18
20,AGCCGTTA,-0.266
21,GCGGGTCA,0.0734
22,CGGGCAGC,-0.244

row,Sequence,PBM E-score
1,CACCCGCG,-0.0685
2,GAGACTAA,-0.172
3,AGATGGTC,-0.274
4,CAGAGTCA,-0.221
5,TATTCCCA,-0.221
6,TATAGGGA,-0.0815
7,CGGATCCG,-0.262
8,GGCCCTAA,-0.304
9,CGCGAAAA,0.0371
10,CTTGGAGA,-0.0514
11,CCTAATCG,0.0391
12,CTTTTGAA,-0.0379
13,AACGCATC,0.0613
14,AAAGATAG,0.0365
15,CTAATGAA,-0.0827
16,AAGTCTCA,-0.0154
17,ACTAACAC,0.265
18,AGTTAAGC,0.101
19,GTCCAGCA,-0.284
20,AGTCTCGA,-0.137
21,CTTCTCCC,-0.0366
22,CGGCGCTC,-0.00635

row,Sequence,PBM E-score
1,TCGCGTAA,0.374
2,AGAAATCG,-0.0445
3,GACTCATA,-0.19
4,CTGATACC,-0.0456
5,CAGGCCCG,-0.0435
6,ACATACTG,0.157
7,CACTCACG,0.086
8,AACGGAAA,-0.0791
9,ATAATACG,0.155
10,CGGTGCTC,-0.312
11,AGCTCCGG,-0.172
12,CTACGACC,-0.0193
13,CACTCCTC,-0.121
14,GAGGATGA,-0.0222
15,AGACCATC,-0.367
16,CAGGTCTA,-0.267
17,AGGAGCTC,0.179
18,AACCATTA,0.117
19,CCGGTCTA,-0.0672
20,CACGAGCG,-0.0336
21,GGACCCAC,-0.213
22,CAGTGTAA,0.225

row,Sequence,PBM E-score
1,GGCACAAA,0.331
2,GACAAAGA,-0.0215
3,CCGTACCG,-0.262
4,ATTTAGAA,-0.0375
5,AAGCGGCC,-0.308
6,CGGCCTGA,-0.351
7,CTAGACCA,-0.28
8,CTGGTCAA,-0.204
9,ACGGAAGA,0.301
10,ATACACCG,0.106
11,ATATTATA,0.0915
12,AGCTGCTC,-0.121
13,GGGACTAA,-0.27
14,AAAGGTGC,0.177
15,GGTAGGCA,0.473
16,CACGCAAA,0.117
17,AATTTCCA,0.167
18,CAGCTTAC,0.106
19,AAGTCCAA,-0.0739
20,ATCGTACC,-0.104
